# From paper PMC4336329 (PLoS ONE, 2015)
# Hit rate of the full screen: of about 310,000 compounds, about 14,000 (4.5%) showed an effect of 50% or more. Effects have a minus sign here. The list shows a part of the results.
# Molecular target: human ether-à-go-go-related gene (hERG) potassium channel (human, UniProt Q12809)
# Assay: primary screen, population patch clamp on CHO cells stably expressing hERG
# 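Further: peak tail current of the secondary pulse compared with the same well before compound.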
# Chain of human ether-à-go-go-related gene (hERG) potassium channel (Q12809 whole entry, looked up): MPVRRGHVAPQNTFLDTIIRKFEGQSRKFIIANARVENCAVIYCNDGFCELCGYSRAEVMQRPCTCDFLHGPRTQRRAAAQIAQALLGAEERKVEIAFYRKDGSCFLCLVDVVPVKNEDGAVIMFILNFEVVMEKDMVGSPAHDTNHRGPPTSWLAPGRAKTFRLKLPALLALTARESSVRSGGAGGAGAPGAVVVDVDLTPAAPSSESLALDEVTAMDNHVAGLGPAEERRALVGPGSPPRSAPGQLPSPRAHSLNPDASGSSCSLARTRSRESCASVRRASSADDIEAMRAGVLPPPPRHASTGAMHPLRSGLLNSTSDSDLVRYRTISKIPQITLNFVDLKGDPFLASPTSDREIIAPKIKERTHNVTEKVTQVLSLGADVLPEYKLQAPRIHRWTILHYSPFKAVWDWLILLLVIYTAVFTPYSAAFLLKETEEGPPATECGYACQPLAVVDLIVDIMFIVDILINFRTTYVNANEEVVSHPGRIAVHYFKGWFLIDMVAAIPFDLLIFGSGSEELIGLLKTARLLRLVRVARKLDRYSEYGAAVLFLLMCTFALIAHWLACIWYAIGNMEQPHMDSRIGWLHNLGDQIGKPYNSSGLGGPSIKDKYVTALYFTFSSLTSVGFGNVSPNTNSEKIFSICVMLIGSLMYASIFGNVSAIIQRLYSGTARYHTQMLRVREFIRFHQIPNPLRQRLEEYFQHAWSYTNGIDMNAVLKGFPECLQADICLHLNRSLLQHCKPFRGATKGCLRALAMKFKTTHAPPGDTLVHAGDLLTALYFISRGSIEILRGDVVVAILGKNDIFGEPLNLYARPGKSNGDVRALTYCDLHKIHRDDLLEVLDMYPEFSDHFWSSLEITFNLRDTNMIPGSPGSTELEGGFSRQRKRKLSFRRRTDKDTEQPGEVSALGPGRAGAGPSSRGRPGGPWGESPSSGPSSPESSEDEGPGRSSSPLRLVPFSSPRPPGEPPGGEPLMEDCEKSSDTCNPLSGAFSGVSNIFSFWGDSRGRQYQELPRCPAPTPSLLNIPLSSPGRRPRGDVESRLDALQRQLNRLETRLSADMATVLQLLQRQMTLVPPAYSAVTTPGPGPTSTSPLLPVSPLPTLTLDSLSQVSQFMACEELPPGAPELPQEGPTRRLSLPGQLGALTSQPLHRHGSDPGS
row,SMILES,"hERG current change (%, negative = inhibition) at 10uM"
1,Cc1cccc(NS(=O)(=O)c2nnc(NC(=O)c3ccc(C)c(C)c3)s2)c1,1.76%
2,CC(=C\C(=O)O)/C(=C/c1ccco1)C(=O)O,10.8%
3,Cc1ccc(C(C)n2cc(C(=O)NCc3ccccn3)nn2)cc1 (stereo not drawn),7.89%
4,NC(=O)CN(c1ccc([N+](=O)[O-])cc1)S(=O)(=O)c1ccccc1,-22.1%
5,CC1CCCCN1CCNC(=O)C1CC(=O)N(c2ccc(F)c(Cl)c2)C1 (stereo not drawn),-56.9%
6,CC1(C)Cc2c(sc3nc(C4CCCCC4)n(N)c(=O)c23)CO1,18.2%
7,CC(C)C1Cc2nc(Cl)c(C#N)cc2CO1 (stereo not drawn),4.05%
8,CC(=O)N(CN1C(=O)CCC1=O)c1ccc(Cl)c(Cl)c1,15.6%
9,COc1ccc(CNc2nc3nc(C)c(Cl)c(=O)n3[nH]2)cc1OC,6.38%
10,Cc1cn(C2C=CC(CO)O2)c(=O)[nH]c1=O (stereo not drawn),4.79%
11,COC(=O)Cc1c(C)c2ccc(OC(C)C)cc2oc1=O,-13.7%
12,CCCCN(C(=O)CNC(=O)c1ccco1)C(C(=O)NC1CCCCC1)c1cccnc1 (stereo not drawn),-3.24%
13,Cc1cc(C)c2nc(NC(=O)c3ccco3)sc2c1,3.16%
14,CN1CCC(NC(=O)Nc2ccc(Br)cc2)CC1,-19.7%
15,Cc1[nH]c(=O)[nH]c(=S)c1C(=O)Nc1ccc(Cl)c(Cl)c1,22.1%
16,CCn1c(SCC(=O)O)nnc1C1CCCCC1,-5.26%
17,O=C(Nc1c(S(=O)(=O)c2ccccc2)csc1Br)c1ccccc1Cl,-0.642%
18,COC(=O)[C@@H]1C[C@@H]2CC[C@@H](O)C[C@@H]2N1Cc1ccc(C(F)(F)F)cc1,-1.34%
19,Cn1c(CSCc2ccc(F)cc2)nnc1SCC(=O)Nc1cccc(C(=O)O)c1,9.71%
20,COCCNC(=O)CCn1nc(-c2ccc(Cl)cc2)ccc1=O,-30.2%
21,CC1CN(S(=O)(=O)c2cccc(C(=O)OC/C(O)=C(\C#N)c3nc4ccccc4[nH]3)c2)CC(C)O1 (stereo not drawn),-11.4%
22,COC(=O)C1CCC(C)(C(=O)Nc2ccccc2)C1(C)C (stereo not drawn),9.52%
23,O=C(NCC1CCCO1)C1CCN(C2CCN(C3CCCCCC3)CC2)CC1 (stereo not drawn),28.4%

row,SMILES,"hERG current change (%, negative = inhibition) at 10uM"
1,COC(=O)CCC(=O)OC1(C)C(=O)C=C2C=C(C3CC3)N(Cc3ccco3)C=C2C1=O (stereo not drawn),1.83%
2,Cc1cc[n+](-c2nc([O-])sc2/C=N/Nc2ccc([N+](=O)[O-])cc2)cc1,12.3%
3,CSc1nnc2c(n1)c(C)nn2-c1cccc(C)c1,-8.1%
4,CCOc1ccc(NC(=O)COC(=O)c2ccc3c(c2)OCO3)cc1,11.2%
5,Cc1[nH]oc(=O)c1N=Nc1ccccc1,3.36%
6,Cc1ccccc1CNC(=O)C1CCC(=O)N(Cc2cccc(F)c2)C1 (stereo not drawn),-8.38%
7,NC(=O)c1nsc(C(=O)N(CC(=O)NC2CCCCC2)c2cccc(F)c2)c1N,0.907%
8,Cc1cc(C)n(-c2nncn2NC(=O)c2ccc(Cl)cc2O)n1,4.97%
9,COCCn1cnnc1SCC(=O)Nc1ccc(N2CCCCC2)cc1,6.16%
10,Cc1ccc(CSc2nnc(-c3ccco3)n2N)cc1,-0.665%
11,CCOc1ccc(S(=O)(=O)Nc2cccc(C(=O)N3CCN(C(C)=O)CC3)c2)cc1,-14.9%
12,CCc1ccc(S(=O)(=O)N2CCN(C(=O)C3CCN(C(C)=O)CC3)CC2)cc1,2.63%
13,Cc1ccc(NC(=O)c2cccs2)cc1NC(=O)c1ccc(F)cc1,0.179%
14,O=C1CC(=O)N(c2ccc3c(c2)OCO3)C(=O)N1,4.28%
15,CCCS(=O)(=O)N1CCCC(C(=O)NCCN2CCOCC2)C1 (stereo not drawn),13.7%
16,O=[N+]([O-])C(/C=C(\Cl)[N+](=O)[O-])=C(N1CCCCC1)N1CCCCC1,3.43%
17,COc1cccc(OCCOc2ccc(/C=C3\C(=N)N4N=C(S(C)(=O)=O)SC4=NC3=O)cc2OC)c1,23.4%
18,CC(C)COn1c(=S)[nH]c2ccccc2c1=O,7.07%
19,Cc1ccc(C)n1-c1ccc(C(=O)O)cc1,22.5%
20,CCN(CC)CCN(C(=O)C1=COCCO1)c1nc2c(OC)ccc(OC)c2s1.Cl,-78.3%
21,CCC(C(=O)NCCc1ccco1)n1nc(C)c2c(C)n(-c3ccccc3)nc2c1=O (stereo not drawn),-0.308%
22,COCC(=O)N(Cc1cc2cc(OC)ccc2[nH]c1=O)c1ccccc1OC,-8.1%
